# Test results taken from PMC6212790.
# This is one part of the list. At the low end of the ranking the order means little.
# Target: T1, GST-Rok-C97-191 (UniProt O34857)
# T1 sequence: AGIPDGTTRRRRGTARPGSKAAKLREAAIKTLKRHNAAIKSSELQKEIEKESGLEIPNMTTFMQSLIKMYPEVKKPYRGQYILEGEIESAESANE
# Assay: protein binding microarray;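 further: rank score from −0.5 (least bound) to 0.5 (best bound)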
# Conditions: Rok is a gene silencer of Bacillus subtilis; high values mean tight binding; most listed sequences are background and not binding sites; double strand, one strand shown
row,Sequence,binding signal
1,CCATTACG,0.176 E-score
2,GGGTCGAA,-0.192 E-score
3,CCTGATAG,0.000217 E-score
4,CGCTATAA,0.114 E-score
5,GTTGCCAA,-0.0231 E-score
6,CGTAGGGC,-0.278 E-score
7,GAAATAGC,0.128 E-score
8,AAGCGGGA,-0.209 E-score
9,AACGAGTT,0.137 E-score
10,ATGCTAAG,0.055 E-score
11,GCCTACGA,-0.0187 E-score
12,ATACCGGG,0.267 E-score
13,ACAGGTTG,-0.118 E-score
14,AGGGGCTA,-0.2 E-score
15,TCGAAGAA,-0.18 E-score
16,AACCAACG,-0.0749 E-score
17,CCGCTGCG,-0.244 E-score
18,GAGTTGAC,0.0426 E-score
19,CATTACGA,0.0599 E-score
20,CTGGGAGC,-0.253 E-score
21,GTGAGGCA,-0.0498 E-score
22,CGGACTCA,-0.063 E-score
23,GCTCCGGA,-0.172 E-score
24,ACCACGCA,-0.145 E-score

row,Sequence,binding signal
1,AGGTGTCG,-0.132 E-score
2,AAAGCGGT,0.0205 E-score
3,CACTCGAG,-0.131 E-score
4,AAAGTGAA,-0.108 E-score
5,ACCTGGGA,-0.213 E-score
6,AGGGAGAC,-0.336 E-score
7,CCGTAGGC,-0.0487 E-score
8,CCGCGTGA,-0.00819 E-score
9,ACTTTGCT,-0.0196 E-score
10,AGCACCAG,-0.102 E-score
11,AAATGAAG,0.0181 E-score
12,CGGTGGGC,-0.218 E-score
13,AATTCCTG,0.0778 E-score
14,ACGGAAAA,0.216 E-score
15,CTCCGTGA,-0.0664 E-score
16,GATGCAGA,-0.0198 E-score
17,ATCGGATC,0.18 E-score
18,ATCAATTG,0.106 E-score
19,TGAGCGCA,-0.134 E-score
20,CAAACTTG,0.147 E-score
21,ACTGCTAA,0.133 E-score
22,AGTAGTTA,0.424 E-score
23,CTACTTCA,0.207 E-score
24,CAAATCTA,0.354 E-score

row,Sequence,binding signal
1,ACATGTAG,0.315 E-score
2,CACGGGGA,-0.0963 E-score
3,CGCCTAAA,-0.29 E-score
4,AACCCCGC,-0.32 E-score
5,TCAGCCAA,-0.109 E-score
6,CTTGAGAC,-0.225 E-score
7,ATAACTGG,0.119 E-score
8,CAGGTTTA,-0.216 E-score
9,ACAAGACA,-0.115 E-score
10,ATTCCCAC,-0.00231 E-score
11,AGACGGCT,-0.0565 E-score
12,AGTTCCAC,0.0477 E-score
13,CGGGTTGA,-0.0983 E-score
14,CCCTCTGA,-0.142 E-score
15,CGTTCCTC,-0.0882 E-score
16,ATCAGGGC,-0.0371 E-score
17,GCTTAGCA,-0.0495 E-score
18,GCACAGGA,-0.132 E-score
19,AACCCCGG,-0.193 E-score
20,ATGGCGAC,-0.149 E-score
21,TCCTCCAA,-0.134 E-score
22,ACCAGACA,-0.155 E-score
23,TGTGGAAA,-0.162 E-score
24,AAGTACTT,0.325 E-score

row,Sequence,binding signal
1,CCCGGAGG,-0.392 E-score
2,AGGAGCTG,-0.169 E-score
3,CATTCCAA,-0.0539 E-score
4,CTTACTGC,0.194 E-score
5,CATTTACG,0.0408 E-score
6,CGGAGACG,-0.133 E-score
7,ATACGGCG,-0.174 E-score
8,ACGGACCA,-0.109 E-score
9,ACACTGAA,-0.0457 E-score
10,AGAGCGGG,-0.201 E-score
11,TAGAAATA,0.416 E-score
12,GATGGATA,0.0398 E-score
13,GCCAGGTA,-0.0542 E-score
14,CTCTCCAG,-0.364 E-score
15,CAAAGGAG,-0.156 E-score
16,GAGGAGCA,-0.331 E-score
17,ACACCGTG,-0.304 E-score
18,CGCACTAG,0.11 E-score
19,TGGAGCAA,-0.0416 E-score
20,TGTGTTAA,-0.0612 E-score
21,TATGTAAA,0.295 E-score
22,TGTCAGAA,-0.000524 E-score
